From PubChem BioAssay AID246 (DTP/NCI, 2004)
Inconclusive results and toxic doses are left out. The source holds more than one record for some entries. They are shown here; other results are not. The source may hold further records. Values that stand side by side repeat one measurement (runs, samples, wells, individuals or studies).

System: BDF1 mice, P1081 chloroleukemia ip, survival T/C
Test: NCI In Vivo Anticancer Drug Screen. Data for tumor model P1081 Chloroleukemia (intraperitoneal) in B6D2F1 (BDF1) mice
Details: endpoint: mean survival time, higher = longer survival
Description: The antitumor activity of compounds was measured in mice bearing transplantable tumors. Survival or tumor size were measured and the results are expressed as the measurement made in the treated group (T) divided by the measurement made in the vehicle treated control group (C). The tumor model used in this assay is P1081 Chloroleukemia (intraperitoneal) in B6D2F1 (BDF1) mice

[1] = dose: 50.0 mg/kg/injection, schedule: Q01DX Z (ip), vehicle: carboxymethylcellulose (CMC)
[2] = dose: 100.0 mg/kg/injection, schedule: Q01DX Z (ip), vehicle: carboxymethylcellulose (CMC)

## CS(=O)(=O)OCCC(=O)N1CCN(C(=O)CCOS(C)(=O)=O)CC1
dose: 12.5 mg/kg/injection, schedule: Q01DX010 (ip), vehicle: saline
  T/C: 116 % of control and 165 % of control

## CCOC(=O)NP(=O)(N1CC1(C)C)N1CC1(C)C (stereo unspecified)
dose: 31.0 mg/kg/injection, schedule: Q01DX Z (ip), vehicle: carboxymethylcellulose (CMC)
  T/C: 99 % of control and 151 % of control

## O=c1[nH]cc(F)c(=O)[nH]1
dose: 25.0 mg/kg/injection, schedule: Q01DX Z (ip), vehicle: saline
  T/C: 121 % of control and 159 % of control

## N#[N+]c1cnc([O-])[nH]c1=O
dose: 2.5 mg/kg/injection, schedule: Q01DX010 (ip), vehicle: saline
  T/C: 122 % of control and 180 % of control

## CO[C@@H]1[C@@H](OC2OC(C)C(OC3CC(C)(O)C(OC(=O)CC(C)C)C(C)O3)C(N(C)C)C2O)[C@@H](CC=O)C[C@@H](C)C(=O)/C=C/C2O[C@H]2C[C@@H](C)OC(=O)C[C@H]1OC(C)=O (stereo partly specified)
dose: 75.0 mg/kg/injection, schedule: Q01DX010 (ip), vehicle: saline
  T/C: 105 % of control and 150 % of control

## C[N+](C)(C)c1ncnc2nc[nH]c12
[1]
  T/C: 108 % of control and 172 % of control

## Cn1c(N)nc2nc[nH]c2c1=S
dose: 40.0 mg/kg/injection, schedule: Q01DX010 (ip), vehicle: saline
  T/C: 100 % of control and 180 % of control
dose: 80.0 mg/kg/injection, schedule: Q01DX010 (ip), vehicle: saline
  T/C: 105 % of control and 200 % of control

## O=C(Nc1ccc(C2=NCCN2)cc1)c1ccc(C(=O)Nc2ccc(C3=NCCN3)cc2)c(Cl)c1
dose: 15.0 mg/kg/injection, schedule: Q01DX Z (ip), vehicle: water
  T/C: 94 % of control and 153 % of control
dose: 30.0 mg/kg/injection, schedule: Q01DX Z (ip), vehicle: water
  T/C: 93 % of control and 200 % of control

## CCCSc1ncnc2nc[nH]c12
[2]
  T/C: 91 % of control and 166 % of control

## Nc1nc(=S)c2ncn(C3OC(CO)C(O)C3O)c2[nH]1 (stereo unspecified)
dose: 2.0 mg/kg/injection, schedule: Q01DX010 (ip), vehicle: saline
  T/C: 100 % of control and 161 % of control
dose: 4.0 mg/kg/injection, schedule: Q01DX010 (ip), vehicle: saline
  T/C: 90 % of control and 150 % of control

## [I][Hg][CH2]C1COC([CH2][Hg][I])CO1 (stereo unspecified)
dose: 30.0 mg/kg/injection, schedule: Q01DX Z (ip), vehicle: carboxymethylcellulose (CMC)
  T/C: 87 % of control, 98 % of control, 155 % of control

## CN(C)CC(=O)c1ccc(O)c(O)c1
dose: 250.0 mg/kg/injection, schedule: Q01DX Z (ip), vehicle: saline
  T/C: 111 % of control and 166 % of control
dose: 500.0 mg/kg/injection, schedule: Q01DX Z (ip), vehicle: saline
  T/C: 113 % of control and 153 % of control

## CSc1ncnc2nc[nH]c12
[1]
  T/C: 96 % of control, 123 % of control, 158 % of control
[2]
  T/C: 100 % of control, 111 % of control, 151 % of control

## Oc1cc(CN(CCCl)CCCl)c(O)cc1CN(CCCl)CCCl
dose: 1.88 mg/kg/injection, schedule: Q01DX Z (sc), vehicle: steriod suspending solution
  T/C: 105 % of control and 174 % of control

## C=CC(CN1CC1)OC(C)=O (stereo unspecified)
dose: 1.88 mg/kg/injection, schedule: Q01DX Z (ip), vehicle: carboxymethylcellulose (CMC)
  T/C: 114 % of control and 151 % of control

## N#CCSc1ncnc2nc[nH]c12
dose: 25.0 mg/kg/injection, schedule: Q01DX Z (ip), vehicle: carboxymethylcellulose (CMC)
  T/C: 110 % of control and 150 % of control
